# Measurements published in article PMC4336329 (PLoS ONE, 2015).
# Among all 310,000 compounds or so, about 14,000 (4.5%) showed an effect of 50% or more. The effect is printed as a negative number. The list shows a part of the results.
# Molecular target: human ether-à-go-go-related gene (hERG) potassium channel (human, UniProt Q12809)
# Assay: primary screen, population patch clamp on CHO cells stably expressing hERG
# 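Also: peak tail current of the secondary pulse compared with the same well before compound.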
# human ether-à-go-go-related gene (hERG) potassium channel, sequence (Q12809 whole entry, looked up): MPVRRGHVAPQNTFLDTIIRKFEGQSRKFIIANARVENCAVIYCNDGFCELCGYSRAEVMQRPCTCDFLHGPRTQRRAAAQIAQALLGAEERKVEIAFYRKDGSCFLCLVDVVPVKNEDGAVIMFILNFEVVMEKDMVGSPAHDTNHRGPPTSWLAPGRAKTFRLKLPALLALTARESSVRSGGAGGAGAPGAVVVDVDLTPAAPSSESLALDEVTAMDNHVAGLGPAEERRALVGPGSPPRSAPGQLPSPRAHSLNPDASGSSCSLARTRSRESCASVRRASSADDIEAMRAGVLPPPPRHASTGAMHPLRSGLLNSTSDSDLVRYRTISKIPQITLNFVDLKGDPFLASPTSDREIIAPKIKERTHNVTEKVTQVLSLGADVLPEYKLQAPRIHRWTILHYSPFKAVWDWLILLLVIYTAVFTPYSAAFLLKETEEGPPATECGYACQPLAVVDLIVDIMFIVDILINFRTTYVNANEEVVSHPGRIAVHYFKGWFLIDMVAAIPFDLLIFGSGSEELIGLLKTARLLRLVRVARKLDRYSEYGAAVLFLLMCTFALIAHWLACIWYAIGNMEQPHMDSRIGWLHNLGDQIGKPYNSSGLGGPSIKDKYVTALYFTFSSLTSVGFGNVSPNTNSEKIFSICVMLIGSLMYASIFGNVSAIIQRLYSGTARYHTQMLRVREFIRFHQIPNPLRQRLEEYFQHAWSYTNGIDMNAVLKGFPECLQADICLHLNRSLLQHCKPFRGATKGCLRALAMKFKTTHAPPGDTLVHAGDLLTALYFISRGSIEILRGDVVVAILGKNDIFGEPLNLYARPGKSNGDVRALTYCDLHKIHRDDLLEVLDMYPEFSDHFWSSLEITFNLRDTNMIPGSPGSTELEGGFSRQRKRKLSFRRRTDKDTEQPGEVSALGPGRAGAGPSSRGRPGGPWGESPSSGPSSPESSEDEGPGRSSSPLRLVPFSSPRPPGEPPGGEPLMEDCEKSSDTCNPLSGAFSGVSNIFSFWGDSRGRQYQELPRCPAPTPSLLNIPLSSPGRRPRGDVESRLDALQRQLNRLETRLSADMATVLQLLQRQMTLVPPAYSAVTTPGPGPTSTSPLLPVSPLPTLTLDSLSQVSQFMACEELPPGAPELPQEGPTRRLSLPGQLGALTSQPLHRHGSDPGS
row,Structure (SMILES),"hERG current change (%, negative = inhibition) at 10uM [%]"
1,O=C(COc1ccc([N+](=O)[O-])cc1Cl)NCCc1ccccc1,-41.8
2,CCOC(=O)[C@H]1[C@H]2COc3ccc(C)cc3[C@@H]2N2C(=O)CN(Cc3ccc(Cl)cc3)C(=O)[C@@]12C,1.93
3,CC(OC(=O)CCOc1ccccc1)C(=O)NC1CC1 (centres unmarked),10.2
4,CN(C)CCC1Sc2ccccc2Oc2ccccc21.O=C(O)C(=O)O (centres unmarked),-24.8
5,O=C(CCN1C(=O)c2ccccc2C1=O)Nc1nc2ccccc2s1,-11.6
6,CCN(CC)CCCNc1ncnc2scc(-c3ccc(F)cc3)c12,-36.3
7,O=C(Nc1ccncc1)C1CCC(CNS(=O)(=O)c2cccc3nsnc23)CC1 (centres unmarked),-15.4
8,Cc1ccc(O)c(NC(=O)c2onc(C)c2Cl)c1,29.7
9,O=C(/C=C/c1ccccc1Cl)N(c1ccccn1)C1CCCCC1,-14.4
10,COc1cc(C(=O)N2CCN(c3ccccc3O)CC2)ccc1OCC(=O)N1CCOCC1,3.06
11,Cc1ccc(-c2nc3ccccc3s2)cc1NC(=S)NC(=O)c1ccccc1,30.4
12,O=C1/C(=C/c2ccc(Cl)cc2)NC(=S)N1Cc1cccnc1,15.5
13,C=CCN(CC=C)C(=S)Nc1cc(Cl)ccc1OC,-0.181
14,O=C(CCc1ccccc1)NC(=S)Nc1cc(C(F)(F)F)ccc1N1CCOCC1,-5.19
15,O=C(O)c1ccc(NCc2cccnc2)c([N+](=O)[O-])c1,30
16,Cc1ccc(C2=NN(C(=S)Nc3ccccc3)C(c3ccco3)C2)cc1 (centres unmarked),21.9
17,CC(NC(=O)CCNC(=O)c1ccco1)c1ccccc1 (centres unmarked),-5.77
18,Cc1c(CN2CCCCC2C)c(=O)n(-c2ccccc2)n1C (centres unmarked),-8.98
19,Cc1ccc(C)c(S(=O)(=O)N2CCCOC2CNC(=O)C(=O)NC2CCCCC2)c1 (centres unmarked),1.93
20,Cc1nn(-c2ccccc2)c(C)c1/C=N/Nc1nc2ccccc2[nH]1,-12.3
21,C=C(C)COc1ccc(-c2[nH]ncc2-c2ccc(OC)cc2)c(O)c1,19.4
22,CCOc1ccc(CN(C)C(=O)NNC(=O)c2ccc(C)cc2)cc1OC,16.8

row,Structure (SMILES),"hERG current change (%, negative = inhibition) at 10uM [%]"
1,C=CCn1c(O)c(C(C)=Nc2cccc(C(=O)O)c2)c(=O)[nH]c1=O,1.4
2,Cc1ccc(S(=O)(=O)N(C)c2ccc(OCC(=O)NCC3(N(C)C)CCCCC3)cc2)cc1,-73.5
3,CCCCNC(=O)Nc1nnc(-c2ccc(OCC)cc2)o1,10.1
4,CSc1ccc(S(=O)(=O)Nc2ccccc2C(=O)N2CCOCC2)cc1,5.5
5,Cl.NCC12CC3CC(C1)CC(c1ccc(Cl)cc1)(C3)C2,-14.1
6,Cc1cccc(NC(=O)c2cc(NC(=O)CCCC(=O)O)ccc2Cl)n1,7.94
7,O=C(CC(C(=O)O)c1cccc(Br)c1)c1ccc(Cl)cc1 (centres unmarked),9.2
8,CCC(C)C1NC(=S)N(Cc2ccccc2)C1=O (centres unmarked),-7.02
9,CCCOC(=O)c1ccc(O)cc1,16.5
10,O=C(CCl)c1ccc(Cc2ncc(C(F)(F)F)cc2Cl)s1,-6.8
11,Cc1cccc(-c2nnc(NC(=O)c3cccs3)s2)c1,-21.7
12,Cc1cccc(C(=O)NC(=S)NNC(=O)COc2c(C)cccc2C)c1,13.8
13,Cc1cccc(OCC(=O)Oc2ccc(Cl)cc2)c1,0.758
14,Cl.O=C(NCCCc1ccccc1)[C@@H]1Cc2ccccc2CN1,-15.1
15,CCSc1ccccc1C(=O)Nc1ccc([N+](=O)[O-])cc1OC,-51.9
16,NC(=O)NC(=O)COC(=O)c1ccc2noc(-c3ccccc3)c2c1,13.2
17,Cc1cccc(CNC(=O)C2CCC(=O)N(C3CCCC3)C2)c1 (centres unmarked),32.9
18,Cc1cccc(Oc2nc3ccccn3c(=O)c2/C=C(\C#N)C(=O)NC2CCS(=O)(=O)C2)c1C (centres unmarked),16.4
19,COc1ccc(CNCCC(c2ccccc2)C2CCOC(C)(C)C2)cc1 (centres unmarked),-52.1
20,CCCCC(=O)OCc1nc(N)nc(Nc2ccccc2C)n1,14.1
21,CCOC(=O)c1cccnc1SCC(=O)Nc1ccc(C)cc1,-4.33
22,CCOC(=O)c1sc2ncn(CC(=O)N(CC)CC)c(=O)c2c1C,-3.59
